What was measured:
SRCAP subunit of SRCAP-C = SRCAP subunit of SRCAP-C (human, UniProt Q6ZRS2 1-3230); assay: cryo-EM structure; purified SRCAP-C mixed 1:1 with acetylated 108N12 nucleosome, 1 mM ATP 30 min at 30 °C, then 0.5 mM ADP-BeFx; gradient fixation with glutaraldehyde; ADP-BeFx-bound state; ARP module refined from apo and ADP-BeFx particles, ACTB^b from the ADP sample; conditions: both partners purified
[1] = target: T1, RUVBL1 subunit of SRCAP-C (human, UniProt Q9Y265); assay: as above; conditions: both partners purified
T1 construct: RUVBL1, human, full-length ORF; Stands in a RUVBL1–RUVBL2 hexamer; source: Expi293F suspension cells, co-transfected with the other SRCAP-C subunits, purified as the complex
T1 sequence (Q9Y265 whole entry): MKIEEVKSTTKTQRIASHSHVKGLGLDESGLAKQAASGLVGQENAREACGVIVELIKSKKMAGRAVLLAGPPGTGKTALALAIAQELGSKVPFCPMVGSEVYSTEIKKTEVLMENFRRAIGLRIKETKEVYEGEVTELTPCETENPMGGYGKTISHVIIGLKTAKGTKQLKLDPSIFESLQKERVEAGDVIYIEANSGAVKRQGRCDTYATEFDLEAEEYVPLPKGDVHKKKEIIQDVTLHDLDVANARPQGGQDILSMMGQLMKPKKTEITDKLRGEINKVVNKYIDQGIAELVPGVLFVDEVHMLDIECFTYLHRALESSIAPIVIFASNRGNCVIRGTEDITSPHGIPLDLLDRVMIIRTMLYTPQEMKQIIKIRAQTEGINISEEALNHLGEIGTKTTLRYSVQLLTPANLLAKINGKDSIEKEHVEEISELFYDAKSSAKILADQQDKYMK

Sequence of SRCAP subunit of SRCAP-C (Q6ZRS2 whole entry): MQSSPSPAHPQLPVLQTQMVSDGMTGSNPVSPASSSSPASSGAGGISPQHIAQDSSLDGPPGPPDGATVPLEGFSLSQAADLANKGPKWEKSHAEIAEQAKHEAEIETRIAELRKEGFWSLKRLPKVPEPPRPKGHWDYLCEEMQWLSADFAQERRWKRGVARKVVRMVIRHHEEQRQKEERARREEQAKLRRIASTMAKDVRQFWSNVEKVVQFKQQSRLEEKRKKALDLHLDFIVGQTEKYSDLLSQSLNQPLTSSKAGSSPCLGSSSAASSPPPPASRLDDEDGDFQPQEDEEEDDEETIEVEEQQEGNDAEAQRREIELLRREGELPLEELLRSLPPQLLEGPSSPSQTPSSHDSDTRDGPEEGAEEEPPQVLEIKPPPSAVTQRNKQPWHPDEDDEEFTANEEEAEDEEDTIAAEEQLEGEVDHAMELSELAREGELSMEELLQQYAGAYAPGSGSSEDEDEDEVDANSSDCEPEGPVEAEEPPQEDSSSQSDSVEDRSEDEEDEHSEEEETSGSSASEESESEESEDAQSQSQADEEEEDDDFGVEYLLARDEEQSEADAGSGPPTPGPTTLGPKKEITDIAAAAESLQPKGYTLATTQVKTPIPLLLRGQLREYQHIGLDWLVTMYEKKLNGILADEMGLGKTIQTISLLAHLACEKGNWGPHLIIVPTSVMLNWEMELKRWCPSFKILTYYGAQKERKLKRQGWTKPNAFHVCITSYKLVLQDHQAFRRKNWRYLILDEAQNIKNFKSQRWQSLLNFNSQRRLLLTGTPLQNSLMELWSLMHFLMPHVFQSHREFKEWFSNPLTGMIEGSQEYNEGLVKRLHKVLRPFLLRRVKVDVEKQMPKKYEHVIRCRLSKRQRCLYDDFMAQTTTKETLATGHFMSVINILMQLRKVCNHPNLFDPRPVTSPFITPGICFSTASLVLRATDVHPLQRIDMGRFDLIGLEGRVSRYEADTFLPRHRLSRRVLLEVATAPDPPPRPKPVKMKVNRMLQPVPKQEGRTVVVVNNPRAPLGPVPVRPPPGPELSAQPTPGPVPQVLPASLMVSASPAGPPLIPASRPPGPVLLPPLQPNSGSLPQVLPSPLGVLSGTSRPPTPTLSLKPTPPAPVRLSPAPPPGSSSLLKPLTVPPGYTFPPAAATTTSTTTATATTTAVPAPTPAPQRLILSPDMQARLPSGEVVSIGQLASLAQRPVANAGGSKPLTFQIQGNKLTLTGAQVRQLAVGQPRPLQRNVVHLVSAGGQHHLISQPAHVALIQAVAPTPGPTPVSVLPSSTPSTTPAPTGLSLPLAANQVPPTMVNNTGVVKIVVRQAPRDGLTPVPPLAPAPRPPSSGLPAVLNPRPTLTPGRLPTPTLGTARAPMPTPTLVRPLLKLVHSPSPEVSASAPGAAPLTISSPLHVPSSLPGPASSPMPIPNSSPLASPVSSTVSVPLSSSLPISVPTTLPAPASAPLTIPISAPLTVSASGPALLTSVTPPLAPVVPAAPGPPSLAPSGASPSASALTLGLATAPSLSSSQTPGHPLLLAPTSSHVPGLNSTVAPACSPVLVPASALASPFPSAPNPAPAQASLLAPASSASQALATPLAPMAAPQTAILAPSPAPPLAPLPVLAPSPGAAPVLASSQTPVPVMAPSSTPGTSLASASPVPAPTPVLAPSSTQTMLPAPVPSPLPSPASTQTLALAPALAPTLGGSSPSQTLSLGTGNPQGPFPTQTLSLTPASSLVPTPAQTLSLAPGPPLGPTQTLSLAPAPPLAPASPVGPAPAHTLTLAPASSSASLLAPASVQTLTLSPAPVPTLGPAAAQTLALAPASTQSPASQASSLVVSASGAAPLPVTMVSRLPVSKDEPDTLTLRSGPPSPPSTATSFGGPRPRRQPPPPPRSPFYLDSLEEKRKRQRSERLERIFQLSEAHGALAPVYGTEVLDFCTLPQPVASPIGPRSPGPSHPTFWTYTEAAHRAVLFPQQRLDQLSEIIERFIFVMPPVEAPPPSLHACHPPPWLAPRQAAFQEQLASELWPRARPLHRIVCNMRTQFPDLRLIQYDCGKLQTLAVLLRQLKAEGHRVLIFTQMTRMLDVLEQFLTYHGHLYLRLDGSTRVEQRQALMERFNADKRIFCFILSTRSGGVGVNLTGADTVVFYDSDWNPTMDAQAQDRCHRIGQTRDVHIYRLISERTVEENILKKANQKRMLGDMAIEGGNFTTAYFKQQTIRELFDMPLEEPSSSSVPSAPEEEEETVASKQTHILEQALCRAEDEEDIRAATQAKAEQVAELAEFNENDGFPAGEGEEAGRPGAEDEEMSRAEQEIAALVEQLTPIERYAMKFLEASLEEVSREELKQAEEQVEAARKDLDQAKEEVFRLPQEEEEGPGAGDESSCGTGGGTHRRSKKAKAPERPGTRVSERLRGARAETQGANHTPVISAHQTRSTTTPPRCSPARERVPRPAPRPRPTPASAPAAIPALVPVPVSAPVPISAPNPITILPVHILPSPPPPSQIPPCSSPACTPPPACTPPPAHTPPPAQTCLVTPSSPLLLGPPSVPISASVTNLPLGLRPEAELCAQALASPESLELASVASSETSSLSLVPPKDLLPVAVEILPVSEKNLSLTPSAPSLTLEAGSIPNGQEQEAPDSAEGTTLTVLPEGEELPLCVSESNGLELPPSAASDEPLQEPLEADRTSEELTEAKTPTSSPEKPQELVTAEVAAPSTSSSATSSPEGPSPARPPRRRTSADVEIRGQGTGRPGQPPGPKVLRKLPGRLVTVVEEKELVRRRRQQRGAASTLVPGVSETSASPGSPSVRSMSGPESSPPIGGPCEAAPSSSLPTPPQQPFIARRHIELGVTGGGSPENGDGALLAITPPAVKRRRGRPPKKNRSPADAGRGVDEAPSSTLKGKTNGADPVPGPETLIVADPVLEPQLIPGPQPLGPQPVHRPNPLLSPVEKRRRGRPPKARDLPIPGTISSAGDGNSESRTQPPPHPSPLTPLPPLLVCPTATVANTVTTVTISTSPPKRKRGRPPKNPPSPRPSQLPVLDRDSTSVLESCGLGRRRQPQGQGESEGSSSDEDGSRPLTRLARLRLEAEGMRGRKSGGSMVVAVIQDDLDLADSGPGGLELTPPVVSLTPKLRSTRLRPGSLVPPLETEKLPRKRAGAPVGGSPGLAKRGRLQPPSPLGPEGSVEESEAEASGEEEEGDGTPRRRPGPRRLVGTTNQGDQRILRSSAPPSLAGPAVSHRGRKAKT

B1: ARP6 subunit of SRCAP-C (natural protein)
chain: not shown
notes: ARP6 (actin-related protein 6), human, full-length ORF; source: Expi293F suspension cells, co-transfected with the other SRCAP-C subunits, purified as the complex
B1: binds (SRCAP subunit of SRCAP-C); binds [1].

— article PMC10853557, “Structural insights into histone exchange by human SRCAP complex” (Cell Discovery, 2024)
